Molecular target: T1, purified human von Willebrand factor (Factor VIII-free) (human, UniProt P04275 764-2813, Alexa 700 succinimide label where used as the labelled probe; unlabeled where coated or used as competitor)
T1 construct: von Willebrand factor, human, purified, free of Factor VIII; The supplier's vWF is plasma-derived as far as I recall; also called vWF; purified vWF; source: bought: Haematologic Technologies (Factor VIII-free)
Experiment: solid phase binding assay; Figure 9C; wells coated with purified vWF (200 ng/ml), probed with Alexa 700-labelled rat Jagged1-Fc or control Fc; TBS with 2 mM CaCl2 and 0.05% Tween 20, overnight; LiCor infrared scanner
Conditions: both partners purified

binding result: binds
B1: rat Jagged1-Fc (Fc fusion)
chain: [about 750 residues left out]QNTNDCSPHPCYNSGTCVDGDNWYRCECAPGFAGPDCRININECQSSPCAFGATCVDEINGYQCICPPGHSGAKCHEVSGRSCITMGRVILDGAKWDDDCNTCQCLNGRVACSKVWCGPRPCRLHKGHGECPNGQSCIPVLDDQCFVRPCTGAGECRSSSLQPVKTKCTSDSYYQDNCANITFTFNKEMMSPGLTTEHICSELRNLNILKNVSAEYSIYIACEPSLSANNEIHVAISAEDIRDDGNPVKEITDKIIDLVSKRDGNSSLIAAVAEVRVQRRPLKNRTD
modifications: Alexa 700 succinimide label where used as the labelled probe; unlabeled where coated
notes: Jagged1, rat; The R&D Systems rat Jagged 1 Fc chimera holds the extracellular domain as I recall; also called Jagged-Fc; source: bought: R&D Systems

From article PMC3781053, “Von Willebrand Factor Inhibits Mature Smooth Muscle Gene Expression through Impairment of Notch Signaling” (PLoS ONE, 2013)
